Reference: the supplement of paper PMC10126150
Values marked as one replicate rest on one cluster of the flow cell; about a third of the high ones do not repeat.

Test system: ATP
Test: switch fluorescence ratio, 500 uM ATP over buffer (Cy3 cluster intensity, sum of 5 cycles each) (fold (ratio)); higher = stronger signal-on switching upon ATP binding; sequences stand for … in TCGTCGGCAGCGTCAGATGTGTATAAGAGACAGTTTTTTTTTTTTTTTTTTTTTTTTT…TC
Conditions: aptamer strand: ATP DNA aptamer (quencher-CACCTGGGGGAGTATTGCGGAGGAAGG + anchor), 100 nM annealed; ATP concentration: 500 uM; one replicate
Outline: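 For every switch-domain sequence, the fluorescence ratio is the mean of per-cluster values, each being summed target-cycle Cy3 intensity over summed buffer-cycle Cy3 intensity. Clusters outside 100-1000 RFU were excluded. On a modified Illumina MiSeq flow-cell, the Cy3-labelled switching-strand clusters were annealed to 100 nM quencher-labelled ATP aptamer, imaged in selection buffer and then after 15 min with 500 uM ATP at 22 °C. Five such cycles were run, with NaOH stripping and re-annealing between them.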
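Further: ATP exposure 15 min at 22 °C before imaging.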

| Sequence | switch fluorescence ratio |
| --- | --- |
| TTGATGTGAC | 1.02 |
| GGGGTCGATT | 0.968 |
| TGGTTCCTCC | 1.33 |
| ACACCAGCGC | 1.12 |
| GTTGTCGCCG | 1.01 |
| TGGCAGGTGC | 1.4 |
| GTGCCACAAG | 1.01 |
| GGGCAAGTTG | 1.02 |
| ACTCTTCAAA | 1.03 |
| TACTGGGAT | 1.02 |
| CTTCTGCTTC | 1.02 |
| GGAAAAGAGT | 1.01 |
| AGTTTAAAGG | 1.06 |
| AGCTCGGGTG | 1.12 |
| AAGAGCTCG | 1.01 |
| CAGGATAAGG | 0.951 |
| CGTGTCGGTC | 0.997 |
| CGTAATCGAC | 1.76 |
| TCGTTGCGGC | 0.889 |
| AGGCAGGGAG | 0.987 |
| AAACTACTAA | 1.11 |
| ATGTGGTACG | 1.02 |
| GAAAGAATTT | 1.02 |

| Sequence | switch fluorescence ratio |
| --- | --- |
| CGGGGTACTA | 1.1 |
| CTATTCGGAG | 1.02 |
| ACCGAGGGGA | 1.03 |
| CAGGCGAATT | 1.04 |
| CACTATCCCG | 0.983 |
| TGCATTATC | 3.54 |
| TTTAAACACT | 1.04 |
| AGATCGCGTC | 1.01 |
| AAAGACCCTT | 1.15 |
| TGCTAGGCGC | 0.944 |
| TGATTTATGT | 0.983 |
| ATGATGCGTA | 0.959 |
| CTCTCACGGT | 1.14 |
| TTGCCGGAAG | 1.01 |
| TCGCATTAAG | 2.87 |
| CGAGACAATT | 1.27 |
| TTGTGGATAG | 0.952 |
| AAAAATTATC | 1.02 |
| TCCTATTAGT | 1.02 |
| TATAAGGAT | 1.02 |
| TGAGGGCCAT | 1.06 |
| GCTAGCATGC | 1.06 |
| GTGACGGTTT | 1.01 |

| Sequence | switch fluorescence ratio |
| --- | --- |
| TGATAATTCC | 1.09 |
| TATGTGTCCG | 0.962 |
| CGGTGATTAA | 1.02 |
| ACCTTCGCGT | 1.89 |
| TCCTAGATAT | 1.02 |
| TTTTCAATTA | 1 |
| TTCTAGGGTT | 0.951 |
| GAGACGATTG | 1.03 |
| GGTATTAATC | 0.98 |
| ATTTACAGTA | 1.07 |
| TTTCGATTTA | 0.944 |
| CTAAAAGT | 0.984 |
| ATTGGGTCTT | 0.992 |
| AGGTATAGT | 0.953 |
| TAATTTACC | 1.07 |
| TTCCAGCAAG | 1.76 |
| AAGCTTTTTC | 0.997 |
| TTTTCCTTTG | 1.06 |
| ATGGGCAATG | 1.07 |
| GCCAGGGGGC | 1.32 |
| CGCGTGCCGG | 0.973 |
| ATACTATCAG | 0.971 |
| TGGTAGTACG | 0.986 |

| Sequence | switch fluorescence ratio |
| --- | --- |
| AGAGCTTATC | 1.05 |
| GGGTGGATCT | 0.97 |
| AATGGACTGG | 1.05 |
| CTGATCGGCG | 0.931 |
| TTTGCTTATC | 1.07 |
| TATTGCGTT | 0.966 |
| GTATTGATAA | 0.934 |
| ACAGTCGTAT | 1 |
| TATTAAATGG | 1.06 |
| CTGTCCAGGT | 1.4 |
| CACTTCCCGC | 2.59 |
| GCAATGCTAG | 1.74 |
| AGGGCCAACT | 0.976 |
| TCCGGGTCGC | 1.04 |
| CTCTGTTATT | 1.27 |
| ATCGTAGCAC | 1.59 |
| GAACTCCGAA | 3.49 |
| GATGTTTCCC | 0.963 |
| GTAGTATCTC | 1.02 |
| ACAATTTGTC | 1.05 |
| TGACATGTAT | 0.986 |
| GTTTATGGGA | 0.963 |
| TGCAGGA | 0.989 |

| Sequence | switch fluorescence ratio |
| --- | --- |
| ACCTCAGGGC | 1.13 |
| GACGTCCGAG | 0.999 |
| CTGGGCATGA | 1.05 |
| GAATATGGC | 1 |
| AAGAAGTCGC | 1.03 |
| CAGGAGGTTT | 1 |
| GCTGGAAAAG | 1.03 |
| TCCTGGGCAT | 2.92 |
| GTGGAAAG | 0.972 |
| AAGCATCCCG | 1 |
| AATAGCATG | 1.05 |
| ATGAGTCTGT | 1.04 |
| GCGCTCTTGT | 0.995 |
| TGTTATACTC | 1.46 |
| ATACTTTTTC | 0.996 |
| CTAAGATGCT | 0.95 |
| GCAGCAAATT | 1 |
| GCAGAATGTC | 0.978 |
| GCCTTGGGTG | 1.02 |
| ATTCCTCAAC | 1.35 |
| TGGGTCGTTT | 0.954 |
| CAGTCATAGC | 1.03 |
| CCAAAGTGAC | 1.97 |

| Sequence | switch fluorescence ratio |
| --- | --- |
| GGCTTTGCCA | 1.02 |
| TGGCTGGTCC | 0.97 |
| TCACCAAAAC | 1.17 |
| TTTTTCTGT | 1.01 |
| CCATGCGCCA | 1.6 |
| GCGGCTGAAC | 1.04 |
| CGCTGCGTGG | 1.01 |
| ATCACAGCAA | 2.4 |
| GTTCTCTGTT | 0.977 |
| ATCCTGCTTG | 1.03 |
| AGCGTATGGT | 1.02 |
| CAGGTTTCGC | 1.01 |
| GTACGTAGCT | 1.18 |
| ATTTATGCTA | 1.01 |
| CTCGATCCAT | 0.952 |
| GCTGCTTTAC | 2.66 |
| GTAAACCGTG | 1.06 |
| TTCAGACAGC | 1.02 |
| CCACGGTGGG | 1.03 |
| AGTTGAAAAT | 0.945 |
| ACGGCGCAAA | 1.41 |
| TACGAAGGCC | 1.08 |
| GGTAGGCCCC | 0.953 |

| Sequence | switch fluorescence ratio |
| --- | --- |
| GCTTACAGTT | 1.04 |
| TTTCACCGGC | 1.03 |
| ACGGACGTCC | 0.977 |
| CATGTTTAAA | 1.02 |
| GAGCGCTCAT | 1 |
| TTTACAGTAT | 1.13 |
| TGCCTAAAAA | 0.915 |
| GCAGATTCGC | 1.01 |
| TTTTAGTGTA | 0.979 |
| ACTTGGTCAC | 1.07 |
| ATCCACGTCT | 1.05 |
| GTTGCTGTAA | 1 |
| AGTCGGTCCG | 0.955 |
| GCGTAACATT | 1.03 |
| TCTTGTGACT | 0.971 |
| TGGGGGAGAC | 0.971 |
| CGCTGGATGC | 1.39 |
| CTAGTCAGA | 0.963 |
| CTTCTCGTGG | 1.02 |
